# Experimental data reported in PubChem BioAssay AID485344 (National Center for Advancing Translational Sciences (NCATS), 2010).
# Values joined by “and” are separate entries in the source; they are usually repeats but may differ in a detail not shown here. Equal entries are not always repeated. Among all 340,000 compounds or so, about 6,900 (2%) were called active. No stated cut-off is given here; in the data, active means inhibition above about 30%; inactive means below that, where a call was filed. Only a part is listed here, and it is no random draw. Where no call is shown, the source filed none.
# Molecular target: D(2) dopamine receptor (Homo sapiens) (UniProt P14416)
# Chain of UniProt P14416 (P14416 whole entry, looked up): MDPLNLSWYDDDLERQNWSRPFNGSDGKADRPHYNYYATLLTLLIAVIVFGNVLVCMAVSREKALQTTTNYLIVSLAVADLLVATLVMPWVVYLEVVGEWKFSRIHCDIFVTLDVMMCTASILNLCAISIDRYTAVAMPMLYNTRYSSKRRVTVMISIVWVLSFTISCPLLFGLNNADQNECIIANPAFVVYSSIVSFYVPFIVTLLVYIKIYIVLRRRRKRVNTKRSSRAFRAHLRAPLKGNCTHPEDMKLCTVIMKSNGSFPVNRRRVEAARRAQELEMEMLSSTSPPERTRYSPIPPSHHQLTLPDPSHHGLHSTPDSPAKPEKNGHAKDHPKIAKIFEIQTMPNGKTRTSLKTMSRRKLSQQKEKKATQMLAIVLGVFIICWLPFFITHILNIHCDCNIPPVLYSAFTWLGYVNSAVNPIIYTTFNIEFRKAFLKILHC
# Assay: HTS Assay for Allosteric Antagonists of the Human D2 Dopamine Receptor: Primary Screen for Antagonists; further: 0% is about no effect
# Details: HEK293 TREx D2 cells, calcium flux, dopamine EC80; at 10 µM; stronger effect = higher value
# Outline: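 Calcium mobilization kinetics were recorded at 1 s intervals in tetracycline-induced HEK293 T-REx D2 cells, first for 180 s after compound addition and then 180 s after EC80 dopamine.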
row,SMILES,inhibition
1,CC(C)NC(=O)CN1C(=O)c2cccnc2Sc2ccccc21,0.927%
2,Cc1ccc(CCNC(=O)CCS(=O)(=O)c2cc3c(cc2Cl)NC(=O)CO3)cc1,11.8%
3,COc1ccc(CNC(=O)C2=CC(c3cccc(OC)c3)=NS(=O)(=O)N2C)cc1,17.3%
4,O=C(OCc1cc(=O)n2nc(C3CC3)sc2n1)c1ccccc1Cl,-5.51%
5,CC(=O)c1cccc(NC(=O)c2cc(C)nc3c2c(C)nn3-c2cccc(Cl)c2C)c1,-1.51%
6,CCn1cc(C(=O)NCCc2ccc(C)cc2)c(=O)c2cc(S(=O)(=O)N3CCC(C)CC3)ccc21,4.46%
7,COC(=O)c1ccc(NC(=O)C(=O)NCC(c2cccnc2)N2CCc3ccccc32)cc1 (stereo unspecified),15.5%
8,CCCOc1ccc(C(=O)Nc2ccc3oc(-c4ccc(N(C)C)cc4)nc3c2)cc1,-4.51%
9,Cc1c(NC(=O)c2sc3ccccc3c2Cl)cccc1-c1nc2ccccc2o1,-6.99%
10,Cc1c(Cl)cccc1NC(=O)Cn1nnc(-c2nc(-c3ccccc3)no2)c1N,2.35%
11,Cc1ccccc1OCC(=O)Nc1ccc2nc(SCC(N)=O)sc2c1,-7.08%
12,Cc1ccc(C2CC(C(F)(F)F)n3ncc(C(=O)NCc4ccco4)c3N2)cc1 (stereo unspecified),active: 37.2%
13,CC1=C(C(=O)Nc2ccccc2)C(c2ccc[nH]2)n2ncnc2N1 (stereo unspecified),12.3%
14,CCCCOC(=O)c1ccc(NC(=O)c2csnn2)cc1,1.17%
15,O=C(COC(=O)c1ccccc1-c1nc2ccccc2s1)NC1CCS(=O)(=O)C1 (stereo unspecified),active: 32.3%
16,COCc1c(C(=O)N2CCN(CCOc3ccccc3)CC2)oc2ccccc12,active: 77.5%
17,CSc1oc(-c2ccccc2)nc1S(=O)(=O)c1ccc(C)cc1,active: 34.3%
18,Cc1cccc(N2CCN(C(=O)CNC(=O)c3ccccc3)CC2)c1C,active: 33.1%
19,CCOC(=O)c1cccc(NC(=O)c2ccc3nc(CCc4ccccc4)oc3c2)c1,-4.68%
20,O=C(NCCCc1nc2ccccc2n1Cc1cccc(Cl)c1)C1CCCCC1,0.674%
21,O=C(c1ccc2c(c1)N(Cc1ccc(Cl)cc1)C(=O)c1ccccc1S2=O)N1CCC(Cc2ccccc2)CC1 (stereo unspecified),-9.39%
22,Cc1csc(=O)n1CCC(=O)OCC(=O)Nc1ccc(S(N)(=O)=O)cc1,active: 53.9%
23,COc1ccccc1N1CCN(Cc2nnc(-c3ccccc3C)o2)CC1,-4.95%
24,O=S(=O)(Nc1ccc(C(F)(F)F)cc1)c1ccc2c(c1)OCCO2,18.1%

row,SMILES,inhibition
1,COc1ccc(OC)c(S(=O)(=O)NCC(c2ccco2)S(=O)(=O)c2ccccc2)c1 (stereo unspecified),2.77%
2,Cc1ccccc1OCCCCn1c(CCNC(=O)C(C)(C)C)nc2ccccc21,2.84%
3,COc1ccc(OC)c(CNC(=O)c2ccc(NC(=O)c3nsc4ccccc34)cc2)c1,-25.8%
4,O=C(CSc1ccccc1)NCc1ccc2c(c1)CCN2C(=O)c1ccccc1,4.53%
5,COc1cccc(-c2noc(CCCC(=O)NCc3ccco3)n2)c1,-4.02%
6,CN(Cc1ccccc1)C(=O)CCS(=O)(=O)c1ccc2c(c1)oc(=O)n2C,2.19%
7,COC(=O)c1ccccc1NC(=O)c1ccc(-c2nc(CSc3ccc(C)cc3)c(C)o2)cc1,11%
8,COc1ccc(OC)c(CN2CCN(CCCc3ccccc3)C(CCO)C2)c1 (stereo unspecified),active: 69.1%
9,CC(C)N(Cc1ccccc1)C(=O)Cn1ncc2c3ccccc3n(Cc3ccccc3)c2c1=O,-21.3%
10,C=CCn1c(O)c(C(CC)=NCc2cccnc2)c(=O)[nH]c1=O,active: 42%
11,COc1ccc(CCNC(=O)c2cn(C)c3ccc(S(=O)(=O)N4CCOCC4)cc3c2=O)cc1OC,8.63% and active: 39.6%
12,CCOC(=O)c1ccc(NC(=O)CCCn2c(=O)c3cccn3c3cccnc32)cc1,9.12%
13,C=CCN(C(=O)c1csnn1)C(C(=O)NCc1ccc(F)cc1)c1ccccc1 (stereo unspecified),active: 51.6%
14,Cc1cccc(Cn2c(SCc3ccc(C(=O)NC4CCCC4)cc3)nc3cccnc32)c1,-16.4%
15,COc1ccc(NC(=O)C2CCN(S(=O)(=O)c3c(C)noc3/C=C/c3cccs3)CC2)cc1,4.38%
16,Cc1nn(-c2ccc(Cl)cc2)c2nc(-c3cccnc3)cc(C(F)(F)F)c12,17.8%
17,CCN(CC)CCCNC(=O)c1ccc(Cn2c(=O)[nH]c3cc(OC)c(OC)cc3c2=O)cc1,-4.9%
18,Cn1cc(C(=O)NCc2ccccc2Cl)c(=O)c2cc(S(=O)(=O)N3CCCCCC3)ccc21,-10.9%
19,Cc1ccc(-n2c(=O)c3c4c(sc3n(CC(=O)Nc3cccc(Cl)c3)c2=O)CCCCC4)cc1C,11.3%
20,Cc1ccc(S(=O)(=O)NCc2nc3nc(C)cc(C)n3n2)cc1,26.1%
21,Cc1cccc(C)c1OCC(=O)NC(Cc1c[nH]c2ccccc12)C(=O)O (stereo unspecified),12.5%
22,Cc1ccc(C)c(CN2CCCN(CC(=O)Nc3ccc(C)c(C)c3)S2(=O)=O)c1,1.33%
23,Cc1cccn2c(=O)cc(CSc3nnc(NC(=O)COc4ccccc4)s3)nc12,-8.46%
24,CCc1ccc(-n2c(=O)c3sc4ccccc4c3n(CC(=O)NCc3ccccc3)c2=O)cc1,-2.31%

row,SMILES,inhibition
1,O=C(Nc1cccnc1)c1cc(-c2ccc(Cl)cc2)on1,0.304%
2,O=C(Cn1cccc1C(=O)c1ccccc1)NCc1ccccc1Cl,6.37%
3,O=C(c1ccc2c(c1)N(Cc1cccc(F)c1)C(=O)c1ccccc1S2)N1CCC2(CC1)OCCO2,-8.33%
4,COc1ccc(CNc2nc3c(-c4cccc(F)c4)nnn3c3ccccc23)cc1,6.61%
5,COc1ccc(N(C)C(=O)c2cc3c(s2)-c2c(C)cccc2OC3)c(OC)c1,-5.95%
6,COc1ccc(-c2c(C)nn3c(C(F)(F)F)cc(-c4ccccc4)nc23)cc1OC,8.38%
7,Cc1ccc(NC(=O)c2c(C)oc3c2C2=NCCN2C=N3)cc1F,10.7%
8,CN(CC(=O)NCc1ccc(F)cc1)S(=O)(=O)c1ccc2[nH]c3c(c2c1)CCCC3,-4.25%
9,COc1ccc(Nc2nnc(-c3ccc(C)c(S(=O)(=O)NCCO)c3)c3ccccc23)cc1C(N)=O,2.14%
10,CCN(c1ccccc1C)S(=O)(=O)c1nnc(NC(=O)c2ccco2)s1,2.4%
11,COc1ccccc1OCC(=O)N1CCC(c2nc3ccccc3o2)CC1,1.27%
12,Cc1ccc(-n2ncc(C(=O)NC3CCCCC3)c2C2CCN(C(=O)OC(C)(C)C)CC2)cc1,0.752%
13,CCCS(=O)(=O)c1ncc(Cl)c(C(=O)Nc2c(C(=O)Nc3ccccc3)oc3ccccc23)n1,0.65%
14,CCOC(=O)c1cc(S(=O)(=O)N2CCN(c3cccc(C)c3C)CC2)[nH]n1,-15.8%
15,CNC(=O)c1c(NC(=O)c2nc(SCc3ccc(C)cc3)ncc2Cl)sc2c1CCCC2,-14.5%
16,COCCCNCCCCOc1ccccc1-c1ccccc1,active: 89.4%
17,Cc1ccc(NC(=O)Nc2cn(CC(C)C)c(=O)c3ccccc23)cc1N(C)C,-6.41%
18,COc1ccc(-c2cc(C(C)=O)c(C)n2CCC(=O)NCc2ccc(C)cc2)cc1,18.8%
19,COc1cccc(CNC(=O)C2CCN(C(=O)c3cnn(-c4ccccc4)c3-n3cccc3)CC2)c1,1.78%
20,COc1ccc(S(=O)(=O)Nc2cc(-c3cn4ccccc4n3)ccc2C)cc1,-9.31%
21,COc1ccc(NC(=O)c2cn(-c3ccccc3)nc2SC)cc1,active: 60.7%
22,CC(C)N(C(=O)Cn1cc(S(=O)(=O)Cc2ccc(C(F)(F)F)cc2)c2ccccc21)C(C)C,-0.0021%
23,Cc1ccc(Nc2c(-c3ccccc3O)nc3ccc(Br)cn23)cc1,8.85%
24,CCOc1ccc(-n2c(=O)c3c(C)c(C(=O)N(C)C)sc3n(CC(=O)Nc3c(C)cc(C)cc3C)c2=O)cc1,-4.28%

row,SMILES,inhibition
1,COc1ccc2c(Sc3ccc(Cl)cc3)c(C(=O)NCCCN3CCCCC3)[nH]c2c1,12.7%
2,Cc1cccc(NC(=O)CSc2nc3c([nH]c4ccccc43)c(=O)n2C)c1,12%
3,Cc1ccc(CN(C(=O)COc2ccc(C)c(C)c2)C2CCS(=O)(=O)C2)o1 (stereo unspecified),8.38%
4,CCOC(=O)c1ccccc1NC(=O)CCc1c(C)nc2ncnn2c1C,7.44%
5,CCOCCCNC(=O)CCc1nnc2ccc(N3CCN(c4cccc(OC)c4)CC3)nn12,10.8%
6,Cc1ccc(NCc2nnc3n2CCCCC3)cc1Cl,-24.9%
7,COc1ccc(-c2cc(C(=O)Nc3c(C)nn(Cc4ccc(F)cc4)c3C)no2)cc1OC,23.8%
8,CN1C(C(=O)Nc2ccc(F)cc2F)=CC(c2cccs2)=NS1(=O)=O,-1.07%
9,CCn1nc(-c2ccccc2)c(-c2ccccc2)c(C(=O)OCCOC)c1=O,22.1%
10,Cc1ccc2c(=O)cc(C(=O)Nc3nnc(C)s3)oc2c1,-19.7%
11,CCOC(=O)C1=C(CN2CCC(C(=O)OCC)CC2)NC(=O)NC1c1ccc(Cl)cc1 (stereo unspecified),-0.0644%
12,Cc1oc(-c2ccccc2)nc1CNC(=O)Nc1ccccc1,-23.9%
13,Cc1nn(C)c2c1c(C(F)(F)F)cc(=O)n2CC(=O)NCc1ccccc1Cl,3.57%
14,Cc1cc(F)ccc1NC(=O)c1sc2nc(-c3cccs3)ccc2c1N,-7.82%
15,CCc1cccc(CC)c1NC1=NS(=O)(=O)c2ccccc21,20%
16,CC(C)OCCCN1C(=O)c2[nH]nc(-c3ccccc3O)c2C1c1ccc(OCc2ccccc2)cc1 (stereo unspecified),13.9%
17,CCOc1ccccc1NC(=O)C(C)Sc1nc2c(c(=O)[nH]1)CCCC2 (stereo unspecified),8.21%
18,Cc1ccc(CC(=O)Nc2c(C(=O)N3CCN(c4ccccc4F)CC3)oc3ccccc23)cc1,18.2%
19,Cc1ccc(NS(=O)(=O)c2ccc3c(c2)NC(=O)CCS3)c(Br)c1,7.86%
20,COc1ccc(C(=O)NCC(c2cccs2)S(=O)(=O)c2ccc(C)cc2)cc1 (stereo unspecified),20.9%
21,NC(=O)CCC(NC(=O)c1ccc(Cl)cc1)C(=O)NCCc1ccc2c(c1)OCCO2 (stereo unspecified),active: 42.2%
22,O=S(=O)(Nc1ccc(-c2ccc(N3CCCC3)nn2)cc1)c1ccc(Br)cc1,-5.28%
23,COc1cc(Cl)c(C)cc1NC(=O)CN1c2ccccc2S(=O)(=O)c2ccccc21,11.5%
24,CCc1ccccc1Nc1nn2c(=O)c3ccc(C(=O)Nc4cc(C)cc(C)c4)cc3nc2s1,6.78%
